Data: paper PMC12077520, “Interaction networks of SIM-binding groove mutants reveal alternate modes of SUMO binding and profound impact on SUMO conjugation” (Science Advances, 2025)
Changes are numbered by the printed parent chain.

B1: His10-SUMO2 WT (natural protein)
chain: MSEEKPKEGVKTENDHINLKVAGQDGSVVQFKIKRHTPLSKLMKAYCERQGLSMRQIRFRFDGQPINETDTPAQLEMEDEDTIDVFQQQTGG
notes: […]; gene synthesised (GenScript), cloned into pET-11a; also called 10xHis-tagged SUMO2; source: E. coli Rosetta, purified (gravity-flow Ni-NTA)
B2: His10-SUMO2 ∆D84-G92 (domain or fragment)
chain: not shown
notes: gene synthesised (GenScript); source: E. coli Rosetta, purified (gravity-flow Ni-NTA)

Tests used:
[1] = molecular target: T1, GST-SEC13 P59A-Y79A-I151A-R216A-Q236A (human, UniProt P55735 1-322, P59A | Y79A | I151A | R216A | Q236A); experiment: pull-down; GST-SEC13 or GST-SEH1L from bacterial lysate held on Glutathione Sepharose beads and washed; recombinant His10-SUMO2 added 2 h at 4°C in 50 mM tris pH 7.5, 150 mM NaCl, 0.5% NP40, 5 mM imidazole, BSA 0.1 mg/ml; five washes; SUMO2/3 immunoblot; conditions: both partners purified
T1 construct: SEC13 mutant, synthesised in pDONR207 (GenScript), cloned into pDEST15; also called SEC13 P59A-Y79A-I151A-R216A-Q236A mutant
T1 sequence (looked up): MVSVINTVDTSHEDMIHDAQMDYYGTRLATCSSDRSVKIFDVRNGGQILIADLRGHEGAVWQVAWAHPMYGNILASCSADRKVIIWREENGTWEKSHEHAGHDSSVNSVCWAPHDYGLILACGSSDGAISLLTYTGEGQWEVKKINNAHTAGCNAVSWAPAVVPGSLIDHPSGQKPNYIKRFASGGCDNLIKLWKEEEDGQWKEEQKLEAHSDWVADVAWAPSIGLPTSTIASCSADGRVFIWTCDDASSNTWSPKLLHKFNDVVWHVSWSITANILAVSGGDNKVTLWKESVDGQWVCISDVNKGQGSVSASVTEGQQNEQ

GST-SEC13 = molecular target: T2, GST-SEC13 (human, UniProt P55735 1-322); experiment: as above; conditions: both partners purified
T2 construct: SEC13, human ORF from pDONR223 (Sigma-Aldrich MISSION TRC3 Human ORF Collection), stop codon introduced, cloned into pDEST15; also called GST-SEC13 WT; SEC13 WT
T2 sequence (looked up): T1 sequence (looked up) with A59P, A79Y, A151I, A216R, A236Q

| Binder | binding result [1] | binding result (GST-SEC13) |
| --- | --- | --- |
| B1 | binds | binds |
| B2 |  | binds |
